Reference: the supplement of paper PMC10441789
The other results are listed elsewhere or left out. Antibody binding of pooled human sera (four to six donors per pool; dilution not stated) to peptides of the Trypanosoma cruzi antigen TSSA on microarrays. Quantile-normalised fluorescence in arbitrary units, mean of duplicate arrays; higher = more binding. No active / inactive call. The uninfected pools are read here as the healthy donors of the same country. The strongest signals lie near the top of the scale (about 60,000).

Tests used:
Assay in all cases: antibody binding signal (normalised fluorescence) (arbitrary fluorescence units); higher = stronger serum antibody binding to peptide
[1] = tested on: pooled sera of chronic Chagas disease patients, Bolivia
Procedure: (§1)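 Microarray of 15-residue peptides over residues 30-55 of Trypanosoma cruzi TSSAII, each with 1 to 10 substitutions at naturally variable positions, probed with one serum pool per country.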

[2] = tested on: pooled sera of chronic Chagas disease patients, Brazil
Procedure: as §1

[3] = tested on: pooled sera of chronic Chagas disease patients, Colombia
Procedure: as §1

[4] = tested on: pooled sera of chronic Chagas disease patients, Mexico
Procedure: as §1

[5] = tested on: pooled sera of chronic Chagas disease patients, USA
Procedure: as §1

[6] = tested on: pooled sera of uninfected people, Argentina
Procedure: as §1

[7] = tested on: pooled sera of uninfected people, Bolivia
Procedure: as §1

[8] = tested on: pooled sera of uninfected people, Brazil
Procedure: as §1

[9] = tested on: pooled sera of uninfected people, Colombia
Procedure: as §1

[10] = tested on: pooled sera of uninfected people, Mexico
Procedure: as §1

[11] = tested on: pooled sera of uninfected people, USA
Procedure: as §1

Sequence	antibody binding signal [1]	antibody binding signal [2]	antibody binding signal [3]	antibody binding signal [4]	antibody binding signal [5]	antibody binding signal [6]	antibody binding signal [7]	antibody binding signal [8]	antibody binding signal [9]	antibody binding signal [10]	antibody binding signal [11]
PSGKENKTATGETPS	4680	9290	3370	4900	9020	5870	3280	283	746	604	229
ENKPATGGAPSQSGA	17900	8250	388	1000	4040	457	1260	336	184	259	300
KKTATGETPSPPGAS	267	707	165	190	3480	398	375	99.6	152	76.4	543
TSSTPPSGTDNKAAA	48400	50700	1440	9680	21200	3020	993	1680	480	274	1340
NKTATGGTPSQSGAS	755	2160	540	458	580	873	789	672	315	992	1250
TENKAAAGEAPSQPG	27100	45700	289	235	14200	83.5	150	179	92.7	87.3	124
SGTDKKPAAGETPSQ	4550	27800	9370	810	2210	138	281	171	926	3000	153
TSSTPPSGKENKPAT	43200	26800	1470	11800	12900	4660	2270	331	790	323	691
KDNKAATGETPSPPG	1930	18400	257	211	9920	307	478	242	242	160	1910
TSSTPPSGKENKTAA	3760	11400	1570	5220	3340	3930	961	170	639	356	484
PPSGKEKKPAAGGAP	798	1620	2800	7080	2450	508	433	142	230	124	242
GTEKKTATGGAPSQS	217	671	1940	1100	1090	331	457	117	105	294	162
TSSTPPSGTENKTAA	48600	52100	411	4310	30100	7170	702	575	926	596	931
